From publication PMC6919601, “Identification of Plasmodium dipeptidyl aminopeptidase allosteric inhibitors by high throughput screening” (PLoS ONE, 2019)
Where “and” joins values, the source holds several entries; their conditions need not be identical. Equal entries are not always repeated. Screen size: about 110,000 compounds; about 230 (0.21%) showed an effect of 50% or more. This is one part of the list.

Each compound was assayed against DPAP1 (Plasmodium falciparum, UniProt Q8IIJ9) (assay: primary screen, percent inhibition; read by cleavage of a fluorogenic dipeptide substrate; higher = more effect of the substance).
Chain of DPAP1 (Q8IIJ9 whole entry, looked up): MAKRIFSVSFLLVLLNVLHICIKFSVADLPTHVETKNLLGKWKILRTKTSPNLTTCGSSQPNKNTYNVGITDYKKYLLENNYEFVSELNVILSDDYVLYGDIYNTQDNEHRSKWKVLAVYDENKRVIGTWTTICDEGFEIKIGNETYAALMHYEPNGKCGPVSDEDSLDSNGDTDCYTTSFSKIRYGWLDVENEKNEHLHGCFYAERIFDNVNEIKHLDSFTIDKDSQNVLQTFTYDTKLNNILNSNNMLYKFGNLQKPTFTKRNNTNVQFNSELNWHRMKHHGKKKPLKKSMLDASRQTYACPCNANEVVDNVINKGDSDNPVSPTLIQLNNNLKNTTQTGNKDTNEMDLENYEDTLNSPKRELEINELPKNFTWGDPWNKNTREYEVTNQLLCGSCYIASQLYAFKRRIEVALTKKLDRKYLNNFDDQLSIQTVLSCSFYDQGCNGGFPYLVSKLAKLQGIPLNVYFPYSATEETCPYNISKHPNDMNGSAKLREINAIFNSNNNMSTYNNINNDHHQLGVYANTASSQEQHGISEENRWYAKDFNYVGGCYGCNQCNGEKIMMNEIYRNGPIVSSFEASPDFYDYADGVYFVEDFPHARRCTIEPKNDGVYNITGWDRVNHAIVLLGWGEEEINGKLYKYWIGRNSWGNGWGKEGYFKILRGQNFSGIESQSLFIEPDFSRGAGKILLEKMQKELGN
Set-up: species or system P. falciparum D10 trophozoite lysates; single well
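Note: 30 min substrate incubation versus DMSO and 10 µM JCP410 controls.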

SMILES | % Inhibition @ 10 uM
O=C1c2ccccc2C(=O)N1c1cccc(-c2csc(Nc3ccc(Br)cc3)n2)c1 | 0.705%
Cc1ccc(C(=O)c2cn(Cc3cccc(C(F)(F)F)c3)c3nc(C)ccc3c2=O)cc1 | -1.71%
O=C(CSc1nnc(COc2ccc(Cl)cc2)o1)N1CCOCC1 | -4.66%
CCOc1ccc(-c2cn3ncsc3n2)cc1 | 2.41%
O=C(Nc1ccccc1)c1cc(SCCS(=O)(=O)c2ccc(Cl)cc2)ccc1Cl | -0.216%
Cc1c(/C(Cc2ccccc2)=N/O)c2ccccc2n1C | -4.35%
CC1CCN(C2=NN3C(=N)/C(=C\c4cccn4Cc4ccccc4)C(=O)N=C3S2)CC1 | 1.72%
CCOC(=O)C1CCN(Cc2ccc([N+](=O)[O-])cc2)CC1 | -5.5%
CCOC(=O)c1c(C)oc2ccc(O)c(CN3CC4(C)CC3CC(C)(C)C4)c12 (stereo not shown) | -4.82%
Cc1cc(C)cc(Oc2nc3ccccn3c(=O)c2/C=C(\C#N)C(=O)NCc2ccco2)c1 | 0.101%
CCc1c(C)sc(NC(=O)CC(c2ccccc2)c2ccccc2)c1C(N)=O | -2.16% and 6.69%
CN(C)/C(=N\S(=O)(=O)c1ccc(Br)cc1)c1ccccc1 | 4.54%
Cc1nc2c(C(=O)NC(C)CCc3ccccc3)cnn2c(C)c1Cc1ccccc1 (stereo not shown) | -2.26%
OC1CCCCc2c1[nH]c1ccc(C3CCCCC3)cc21 (stereo not shown) | 20.8%
CN1CCN(C(=O)CNS(=O)(=O)c2ccc(Br)cc2)CC1 | -1.51%
CCOc1ccc(CCNC(=O)CCCc2nnc3n(CCC(C)C)c(=O)c4sccc4n23)cc1 | -3.58%
CCOc1ccccc1CNC(C)(C)CO | 1.02%
COc1ccc(-c2cc(C(=O)NCc3cn(C)nc3C)c3ccccc3n2)cc1OC | 0.115%
COCCNC(=O)CCCn1c(SCc2ccccc2F)nc2c(sc3ccccc32)c1=O | 11.2%
O=C(CN1Cc2ccccc2C1=O)NCC1CCN(Cc2ccc(F)cc2)CC1 | -2.41%
C=CCN1C(=O)S/C(=C/c2ccc(N3CCOCC3)cc2)C1=O | 2.49%
CCN(CC)Cc1cc2ccccc2c2c1COC2 | 2.62%
CCOc1ccc(CCNC(=O)CS(=O)Cc2nc(-c3cccc(C)c3)oc2C)cc1OCC (stereo not shown) | -4.71%
O=C(NCCN1CCOCC1)c1nc(-c2ccc(Cl)cc2)n2c1CCCCC2 | 2.36%
CC(C)C(=O)Nc1ccc(NC(=O)COc2ccccc2Cl)cc1 | 8.43%

SMILES | % Inhibition @ 10 uM
C=CCN(C(C)=O)c1nc(-c2ccccc2)cs1 | 1.03%
CC(C)NC(=S)NC1(C)CCS(=O)(=O)C1 (stereo not shown) | 0.884%
COc1ccc(-c2c(C)nn3c(O)c4c(nc23)CCC4)cc1 | 1.4%
Cc1nn(CC(=O)N2CCC(C)CC2)c(=O)c2cccn12 | -10.2%
CC1CCN(C(=O)C2CC(c3ccccc3F)=NO2)CC1 (stereo not shown) | 4.41%
O=C(NCCCN1CCOCC1)c1nn2c(C(F)(F)F)cc(-c3cccs3)nc2c1Cl | -7.15%
CNC(=O)CN(CCc1ccccc1)S(=O)(=O)c1c(C)cc(C)cc1C | 3.65%
CC(=O)C1=C(C)OC(N)=C(C#N)C1c1c(Cl)cccc1Cl (stereo not shown) | 2.46%
O=C(NCc1ccccc1)N1CCn2c(nc3ccccc32)C1 | 2.34%
OC1CCN(Cc2ccccc2F)CC1 | -1.77%
c1ccc(CCCN2CCN(Cc3ccccc3)CC2)cc1 | -2%
Cc1c(CNCC2CCCO2)c(C(=O)O)c(C)n1Cc1ccc(F)cc1 (stereo not shown) | -3.67%
Cc1ccoc1C(=O)NCCNC(=O)c1occc1C | -1.6%
COc1cc(C)nc(N(Cc2ccccc2)S(=O)(=O)c2ccc(C)cc2)n1 | 5.03%
COc1ccc(NC(=O)CN(C)S(=O)(=O)c2cc(Cl)ccc2Cl)cc1 | 3.17%
COc1cc(CNC(C)(C)CO)ccc1OCc1ccccc1 | -7.14%
COc1ccc(-n2cnc3cc(C(=O)NCc4ccccc4Cl)ccc32)cc1 | 5.85%
O=C(CCN1C(=O)c2cccc3cccc(c23)C1=O)NCCN1CCOCC1 | -3.9%
Cc1cc(/C=C2\NC(=O)NC2=O)c(C)n1-c1cccnc1 | -0.473%
COc1ccc(OC)c(NC(=O)CN(c2cc(C)ccc2OC)S(C)(=O)=O)c1 | -4.13%
COc1ccc(N2CCN(C(=O)c3ccc(-n4nc(C)cc4C)cc3)CC2)cc1 | -3.25%
Cc1cc(C)c2c(C)nn(C)c2n1 | 3.81%
COc1cccc(CN2CCN(C3CCC(C)CC3)CC2)c1OC (stereo not shown) | -4.69%
CCC(C)NS(=O)(=O)c1ccc2c(c1)Cc1cc(S(=O)(=O)NC(C)CC)ccc1-2 (stereo not shown) | 1.27%
CCOc1ccc(-c2[nH]nc3c2C(c2ccc(OC)c(OC)c2)C(C#N)=C(N)O3)c(OCC)c1 (stereo not shown) | -6.58%

SMILES | % Inhibition @ 10 uM
COc1ccc(OC)c(C(=O)c2ccc(C(=O)N3CCCCC3)cc2)c1 | -2.32%
CCN(CC)C(=O)C1CCCN(Cc2ccc(Br)cc2)C1 (stereo not shown) | -1.77%
CCCc1cc2c(cc1OC)OCC(c1ccc3c(c1)OCCO3)C2=O (stereo not shown) | -2.59%
O=C(CN1Cc2ccccc2C1=O)N1CCc2ccccc2C1 | 0.297%
Cc1csc(NC(=O)C(C)N2Cc3ccccc3C2=O)n1 (stereo not shown) | -0.501%
COc1cccc(C(=O)Nc2ccc(N3CCN(C(=O)C(C)C)CC3)c(Cl)c2)c1 | -1.43%
Cc1ccc2cc3cc(C(=O)NCCC(C)C)sc3nc2c1 | -1.27%
Cc1cccc(OCC(=O)N2CCN(C(=O)c3ccco3)CC2)c1 | 1.26%
COc1ccc2c(c1)CCc1c(C(=O)NCCCN3CCOCC3)noc1-2 | -7.85%
CC(C)NC(=S)N1CCC(Cc2ccccc2)CC1 | 4.19%
COc1ccc(-n2c(C)nc3cc(C(=O)NCCC4=CCCCC4)ccc32)cc1 | -7.66%
CCN1C(=O)c2cccc3c(S(=O)(=O)N4CCCC4C(=O)O)ccc1c23 (stereo not shown) | 0.583%
O=S(=O)(NCc1ccccc1)c1ccc2c(c1)OCCO2 | 16.1%
COc1ccc(C2C=C(c3ccc(OC(F)F)cc3)Nc3nnnn32)cc1 (stereo not shown) | 3.12%
COc1ccc(-c2nnc(-c3ccc(OC)cc3)o2)cc1 | -0.216%
CS(=O)(=O)c1ccc(S(=O)(=O)C(F)(F)F)cc1 | -1.05%
Cc1cc2c(cc3c(=O)n(CC(=O)NCc4ccccc4Cl)ncn32)s1 | 1.68%
COC(=O)C1=C(O)/C(=C\c2ccc(C(=O)O)cc2)N=C1C | 0.131%
CC1=C(C(=O)Nc2ccc(C)cn2)C(c2cnn(C)c2C)C2=C(O)CC(c3ccccc3)CC2=N1 (stereo not shown) | -0.968%
CC(C)C1NCCc2c1sc1ccccc21 (stereo not shown) | 5.58%
COc1ccc(C(=O)N(CCCN(C)C)c2nc3c(C)cccc3s2)cc1 | -4.61%
CC1CCN(S(=O)(=O)c2ccc3c(ccn3CC(=O)NCCCc3ccccc3)c2)CC1 | -2.37%
O=C(Cn1nnc(-c2ccccc2Cl)n1)NCCCN1CCOCC1 | 7.16%
COc1ccc(C(=O)Nc2ccc(S(=O)(=O)Nc3ccc(Cl)c(Cl)c3)cc2)cc1 | -4.59%
CCOCCCNC(=O)CCn1cnc2onc(-c3ccc(F)cc3)c2c1=O | 0.358%

SMILES | % Inhibition @ 10 uM
COc1ccc(C(=O)C2=C(O)C(=O)N(CCc3c[nH]c4ccccc34)C2c2ccc(O)c(OC)c2)cc1 (stereo not shown) | 2.62%
CC1=C(C#N)C(=O)N(CCCO)C(=O)/C1=C\c1ccc(-c2ccc(Br)cc2)o1 | -1.26%
Cc1ccc(C(=O)Nc2cccc(NC(=O)c3ccc(C)cc3)c2)cc1 | -1.36%
OCc1ccc(C#Cc2ccccc2)o1 | -0.415%
COc1cc(CN2CCN(Cc3ccco3)CC2)cc(OC)c1 | 9.11%
O=C(Nc1cccc([N+](=O)[O-])c1)c1c(F)cccc1F | -0.546%
Cc1nc2c(C(=O)NCCN(C)C)cnn2c(C)c1Cc1c(F)cccc1Cl | -4.29%
O=C(c1ccccc1F)N1N=C(c2ccccc2)CC1(O)C(F)(F)F (stereo not shown) | 1.02%
C=CCc1ccccc1OCCN1CCN(C)CC1 | -0.0735%
CC(C)Cc1nc2sc3c(c2c(=O)o1)CCCCC3 | 3.59%
CCOc1cc(CN2CCN(c3ccc(OC)cc3)CC2)ccc1OC | -1.77%
COc1ccc2[nH]c(C)c(CCNC(=O)c3cccs3)c2c1 | -1.24%
CCCCCO/C(O)=C1/C(C)=Nc2ncnn2C1c1ccc(OC)cc1 (stereo not shown) | -2.41%
O=C(Nc1ccc(Cl)cc1)NC1CCCCC1NC(=O)Nc1ccc(Cl)cc1 (stereo not shown) | 0.528%
CC(CCc1ccccc1)NC1CCN(Cc2ccccc2)CC1 (stereo not shown) | -2.56%
COc1cc2c(cc1OC)CN(CC1CC=CCC1)CC2 (stereo not shown) | 1.74%
COc1ccc(S(=O)(=O)c2nnn(-c3ccccc3Cl)c2N)cc1 | -3.34%
O=C(CN1CCCCC1)c1c[nH]c2ccccc12 | 2.99%
Cc1cc(Cl)ccc1OCC(=O)Nc1ccccc1C(=O)O | -1.88%
O=C(N1CCN(c2ccc([N+](=O)[O-])cc2)CC1)C12CC3CC(CC(C3)C1)C2 | -2.55%
COc1ccccc1C1/C(=C(\O)OC(C)C)C(C)=Nc2nnnn21 (stereo not shown) | -3.53%
Cn1c2ccccc2c2cc(C(O)(CC(=O)c3ccccc3)C(F)(F)F)ccc21 (stereo not shown) | -6.27%
CC(C)(C)Nc1ncnc2c1cnn2Cc1ccccc1 | 4.66%
Cc1ccc(N2C(=O)C(NC(=O)c3ccccc3)(C(F)(F)F)C3=C2CC(C)(C)CC3=O)cc1 (stereo not shown) | -10.7%
CCOc1cc2c(cc1OCC)C(c1cccc(OC)c1OC)NCC2 (stereo not shown) | 2.49%
